Experimental findings from patent publication US20220213195A1 (SHANDONG BOAN BIOTECHNOLOGY, published 2022) are described below.

Assay [1] deals with T1, TGFβ1 (Sinobiological, catalog number: 10804-HNAC) (UniProt P01137 part only).
T1 construct: Bought recombinant protein; also called TGFβ1 protein
The assay can be described thus: ELISA, TGFβ1 coated at 0.05 µg/mL, fusion protein 1 µg/mL. For orientation: ELISA stands for enzyme-linked immunosorbent assay.

Assay [2] concerns the target T1, TGFβ1 (Sinobiological, catalog number: …). The assay can be described thus: ELISA, TGFβ1 coated at 0.2 µg/mL, fusion protein 1 µg/mL.
Assay [3] shares this target. The assay can be described thus: ELISA, TGFβ1 coated at 0.0125 µg/mL, fusion protein 1 µg/mL.

T1 sequence (P01137 279-390 limits assumed): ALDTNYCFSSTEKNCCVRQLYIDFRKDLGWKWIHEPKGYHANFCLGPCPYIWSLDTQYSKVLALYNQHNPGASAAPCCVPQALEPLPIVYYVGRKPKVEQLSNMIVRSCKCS

B1: PLTGB-M7824-IgG1 (other)
heavy: EVQLLESGGGLVQPGGSLRLSCAASGFTFSSYIMMWVRQAPGKGLEWVSSIYPSGGITFYADTVKGRFTISRDNSKNTLYLQMNSLRAEDTAVYYCARIKLGTVTTVDYWGQGTLVTVSS[human IgG1 constant region not listed]GGGGSGGGGSGGGGSGGGGSGIPPHVQKSVNNDMIVTDNNGAVKFPQLCKFCDVRFSTCDNQKSCMSNCSITSICEKPQEVCVAVWRKNDENITLETVCHDPKLPYHDFILEDAASPKCIMKEKKKPGETFFMCSCSSDECNDNIIFSEEYNTSNPD
light: QSALTQPASVSGSPGQSITISCTGTSSDVGGYNYVSWYQQHPGKAPKLMIYDVSNRPSGVSNRFSGSKSGNTASLTISGLQAEDEADYYCSSYTSSSTRVFGTGTKVTVLGQPKANPTVTLFPPSSEELQANKATLVCLISDFYPGAVTVAWKADGSPVKAGVETTKPSKQSNNKYAASSYLSLTPEQWKSHRSYSCQVTHEGSTVEKTVAPTECS
notes: Control made in-house: Avelumab variable regions, with TGFβRII linked to the heavy chain by (G4S)4G; expressed in HEK293 cells; also called control bifunctional fusion protein
B1: the OD450 was found to be 1.81 OD450 in assay [1], 3.57 OD450 in assay [2] and 0.537 OD450 in assay [3].
